Results: the supplement of paper PMC4604168 (melanoma cell lines)
This is one part of the list. Most values come without repeats; read them as rough.

Columns and labels:
Test in all cases: cell count relative to DMSO control; melanoma cells; higher = more viable cells
Details in all cases: library dose: low library concentration; 72 h
[1] = tested on: WM115
[2] = tested on: WM1716
[3] = tested on: WM1745
[4] = tested on: WM3526
[5] = tested on: WM3619
[6] = tested on: WM451Lu
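Note: cell number obtained by counting DAPI-stained nuclei in high-throughput microscope images with image analysis software, screen run in 1,536-well plates.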

Row | SMILES | cell count [1] [%] | cell count [2] [%] | cell count [3] [%] | cell count [4] [%] | cell count [5] [%] | cell count [6] [%]
1 | O=c1[nH]nc(Sc2ncc([N+](=O)[O-])s2)n1-c1ccc2c(c1)OCCO2 + Cn1cc(/C=C2\C(=O)Nc3cccnc32)c2ccccc21 [GW441756] (first compound 0.2 µM, partner dose 0.4 µM) | 106 | 117 | 94.2 | 97.4 | 88.9 | 96.6
2 | C[C@@H]1CCN(C(=O)CC#N)C[C@@H]1N(C)c1ncnc2[nH]ccc12 + CN(C)S(=O)(=O)c1ccc2c(c1)/C(=C/c1cc3c([nH]1)CCCC3)C(=O)N2 [SU6656] (first compound 1 µM, partner dose 0.4 µM) | 75.1 | 105 | 86.2 | 82.2 | 117 | 86.7
3 | COc1cc(Nc2ncc(F)c(Nc3ccc4c(n3)NC(=O)C(C)(C)O4)n2)cc(OC)c1OC [Tamatinib] + Cn1cncc1[C@@](N)(c1ccc(Cl)cc1)c1ccc2c(c1)c(-c1cccc(Cl)c1)cc(=O)n2C [tipifarnib] (first compound 0.4 µM, partner dose 0.01 µM) | 61.1 | 66.1 | 67.5 | 69.5 | 53.2 | 92.7
4 | C[C@@H]1CCN(C(=O)CC#N)C[C@@H]1N(C)c1ncnc2[nH]ccc12 + O=S(=O)(c1ccccc1)N(CC(F)(F)F)c1ccc(C(O)(C(F)(F)F)C(F)(F)F)cc1 [T0901317] (first compound 1 µM, partner dose 1.4 µM) | 93.3 | 94.1 | 69.6 | 81.3 | 111 | 111
5 | O=C(Nc1cccc(Cl)c1)Nc1ncc(CCNc2ncnc3ccsc23)s1 + Cn1cncc1[C@@](N)(c1ccc(Cl)cc1)c1ccc2c(c1)c(-c1cccc(Cl)c1)cc(=O)n2C [tipifarnib] (first compound 0.0008 µM, partner dose 0.01 µM) | 60.9 | 89.6 | 78.6 | 79 | 93 | 78
6 | Cn1cncc1[C@@](N)(c1ccc(Cl)cc1)c1ccc2c(c1)c(-c1cccc(Cl)c1)cc(=O)n2C [tipifarnib] + O=c1cc(-c2cccc3c2Sc2ccccc2S3)oc(N2CCOCC2)c1 [KU55933] (first compound 0.01 µM, partner dose 1 µM) | 91.7 | 70.8 | 97.4 | 74.8 | 105 | 91.9
7 | O=c1[nH]nc(Sc2ncc([N+](=O)[O-])s2)n1-c1ccc2c(c1)OCCO2 + CO[C@H]1C[C@@H]2CC[C@@H](C)[C@@](O)(O2)C(=O)C(=O)N2CCCC[C@H]2C(=O)O[C@H]([C@H](C)C[C@@H]2CC[C@@H](OCCO)[C@H](OC)C2)CC(=O)[C@H](C)/C=C(\C)[C@@H](O)[C@@H](OC)C(=O)[C@H](C)C[C@H](C)/C=C/C=C/C=C/1C [everolimus] (first compound 0.2 µM, partner dose 0.02 µM) | 69.3 | 68.8 | 85.4 | 66.8 | 61.8 | 82.3
8 | O=c1[nH]nc(Sc2ncc([N+](=O)[O-])s2)n1-c1ccc2c(c1)OCCO2 + Cn1nnc2c(C(N)=O)ncn2c1=O [temozolomide] (first compound 0.2 µM, partner dose 2 µM) | 92.3 | 81.1 | 92.5 | 84 | 88.2 | 99.4
9 | O=C(O)c1ccc(-c2c[nH]c3ncc(-c4ccccc4)cc23)cc1C1CCCC1 + COc1ccc2c(c1)CCC1C2CCC2(C)C(NCCCCCCN3C(=O)C=CC3=O)CCC12 [U73122] (first compound 0.16 µM, partner dose 0.4 µM) | 100 | 92.9 | 88.2 | 98.6 | 100 | 93.2
10 | O=c1[nH]nc(Sc2ncc([N+](=O)[O-])s2)n1-c1ccc2c(c1)OCCO2 + O=C(/C=C/c1cccnc1)NCCCCC1CCN(C(=O)c2ccccc2)CC1 [FK866] (first compound 0.2 µM, partner dose 0.01 µM) | 100 | 87.5 | 89 | 109 | 80.7 | 103
11 | O=c1[nH]nc(Sc2ncc([N+](=O)[O-])s2)n1-c1ccc2c(c1)OCCO2 + Nc1ncn([C@H]2C[C@H](O)[C@@H](CO)O2)c(=O)n1 [decitabine] (first compound 0.2 µM, partner dose 0.1 µM) | 80.4 | 87.7 | 96.2 | 110 | 94.2 | 97.3
12 | CC1(C)NC(=O)N(c2ccc([N+](=O)[O-])c(C(F)(F)F)c2)C1=O [nilutamide] + NCC(=O)Nc1ccc(-n2nc(C(F)(F)F)cc2-c2ccc3c(ccc4ccccc43)c2)cc1 [OSU03012] (first compound 1 µM, partner dose 1 µM) | 92.7 | 107 | 103 | 56.6 | 91.3 | 46.2
13 | O=c1[nH]nc(Sc2ncc([N+](=O)[O-])s2)n1-c1ccc2c(c1)OCCO2 + Cc1cc([N+](=O)[O-])ccc1NS(=O)(=O)c1cc(Cl)ccc1Cl [FH535] (first compound 0.2 µM, partner dose 1 µM) | 94.6 | 99.5 | 93.4 | 81.5 | 126 | 91.5
14 | Cn1cncc1[C@@](N)(c1ccc(Cl)cc1)c1ccc2c(c1)c(-c1cccc(Cl)c1)cc(=O)n2C [tipifarnib] + CCc1ccc(CCOc2ccc(CC3SC(=O)NC3=O)cc2)nc1 [pioglitazone] (first compound 0.01 µM, partner dose 2 µM) | 81.2 | 87.2 | 88.7 | 104 | 93.8 | 86.6
15 | CC1(C)NC(=O)N(c2ccc([N+](=O)[O-])c(C(F)(F)F)c2)C1=O [nilutamide] + CC(C)CCN1c2nc(Nc3cc(F)c(O)c(F)c3)ncc2N(C)C(=O)C1C [BID1870] (first compound 1 µM, partner dose 0.2 µM) | 101 | 87.9 | 94 | 108 | 121 | 106
16 | O=c1[nH]nc(Sc2ncc([N+](=O)[O-])s2)n1-c1ccc2c(c1)OCCO2 + Nc1ccn([C@@H]2O[C@H](CO)[C@@H](O)C2(F)F)c(=O)n1 [gemcitabine] (first compound 0.2 µM, partner dose 0.0004 µM) | 102 | 97.5 | 74.4 | 92.8 | 83.4 | 87.8
17 | O=c1[nH]nc(Sc2ncc([N+](=O)[O-])s2)n1-c1ccc2c(c1)OCCO2 + N#Cc1c(O)c2c(-c3ccc(-c4ccccc4O)cc3)csc2[nH]c1=O [A769662] (first compound 0.2 µM, partner dose 2 µM) | 107 | 92.8 | 93.4 | 87.8 | 102 | 116
18 | O=c1[nH]nc(Sc2ncc([N+](=O)[O-])s2)n1-c1ccc2c(c1)OCCO2 + COc1cc2c(Oc3ccc4[nH]c(C)cc4c3F)ncnc2cc1OCCCN1CCCC1 [cediranib] (first compound 0.2 µM, partner dose 0.4 µM) | 100 | 82.6 | 93.9 | 102 | 118 | 93.5
19 | O=c1[nH]nc(Sc2ncc([N+](=O)[O-])s2)n1-c1ccc2c(c1)OCCO2 + O=C(O)c1ccc(-c2c[nH]c3ncc(-c4ccccc4)cc23)cc1C1CCCC1 [GSK650394] (first compound 0.2 µM, partner dose 0.16 µM) | 93.3 | 111 | 95.1 | 101 | 84.5 | 100
20 | C[C@@H]1CCN(C(=O)CC#N)C[C@@H]1N(C)c1ncnc2[nH]ccc12 + O=C(Nc1ccccc1)c1cc([N+](=O)[O-])ccc1Cl [GW9662] (first compound 1 µM, partner dose 2 µM) | 109 | 104 | 106 | 108 | 103 | 123
21 | O=c1[nH]nc(Sc2ncc([N+](=O)[O-])s2)n1-c1ccc2c(c1)OCCO2 + CN1CCN(c2ccc3nc(-c4c(N)c5c(F)cccc5[nH]c4=O)[nH]c3c2)CC1 [Dovitinib] (first compound 0.2 µM, partner dose 0.1 µM) | 96.9 | 88.5 | 96.1 | 92.1 | 118 | 121
22 | CC1(C)NC(=O)N(c2ccc([N+](=O)[O-])c(C(F)(F)F)c2)C1=O [nilutamide] + COc1ccc(-c2ccc3c(N4CCOCC4)nc(N4C[C@@H](C)O[C@@H](C)C4)nc3n2)cc1CO [KU0063794] (first compound 1 µM, partner dose 0.02 µM) | 111 | 103 | 98 | 103 | 110 | 86.2
23 | O=c1[nH]nc(Sc2ncc([N+](=O)[O-])s2)n1-c1ccc2c(c1)OCCO2 + COc1ccc(C2=N[C@@H](c3ccc(Cl)cc3)[C@@H](c3ccc(Cl)cc3)N2C(=O)N2CCNC(=O)C2)c(OC(C)C)c1 [Nutlin-3] (first compound 0.2 µM, partner dose 0.1 µM) | 100 | 107 | 81.9 | 103 | 112 | 103
24 | COc1cc(Nc2ncc(F)c(Nc3ccc4c(n3)NC(=O)C(C)(C)O4)n2)cc(OC)c1OC [Tamatinib] + COc1ccc(-c2ccc3c(N4CCOCC4)nc(N4C[C@@H](C)O[C@@H](C)C4)nc3n2)cc1CO [KU0063794] (first compound 0.4 µM, partner dose 0.02 µM) | 86.6 | 87.4 | 65.4 | 80.7 | 88.4 | 86.5
25 | O=c1[nH]nc(Sc2ncc([N+](=O)[O-])s2)n1-c1ccc2c(c1)OCCO2 + Cc1ccc(NC(=O)c2cccc(N(C)C)c2)cc1NC(=O)c1ccc(O)cc1 [ZM336372] (first compound 0.2 µM, partner dose 2 µM) | 105 | 111 | 96 | 98.7 | 83.7 | 115
26 | O=C(Nc1cccc(Cl)c1)Nc1ncc(CCNc2ncnc3ccsc23)s1 + O=C(O)C(=O)Nc1sc2c(c1C(=O)O)CCNC2 [TCS401] (first compound 0.0008 µM, partner dose 1.66667 µM) | 70.3 | 104 | 87.3 | 90.4 | 101 | 101
